# The other results are listed elsewhere or left out. Single values are uncertain, as repeats are few or missing.
# System: WM115
# Test: cell count relative to DMSO control; melanoma cells; higher = more viable cells
# Conditions: library dose: standard library concentration; 72 h
# 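Also: cells treated in 1,536-well plates, then fixed and DAPI-stained, with nuclei counted from automated high-throughput microscope images.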
row,SMILES,cell count [%]
1,"CC1(C)NC(=O)N(c2ccc([N+](=O)[O-])c(C(F)(F)F)c2)C1=O [nilutamide] + CCc1ccc(CCOc2ccc(CC3SC(=O)NC3=O)cc2)nc1 [pioglitazone] (first compound 5 µM, partner dose 10 µM)",98.4
2,"O=C(Nc1cccc(Cl)c1)Nc1ncc(CCNc2ncnc3ccsc23)s1 + CC(C)CCN1c2nc(Nc3cc(F)c(O)c(F)c3)ncc2N(C)C(=O)C1C [BID1870] (first compound 0.004 µM, partner dose 1 µM)",30.4
3,"COc1cc(Nc2ncc(F)c(Nc3ccc4c(n3)NC(=O)C(C)(C)O4)n2)cc(OC)c1OC [Tamatinib] + N#Cc1c(O)c2c(-c3ccc(-c4ccccc4O)cc3)csc2[nH]c1=O [A769662] (first compound 2 µM, partner dose 10 µM)",78.6
4,"O=C(Nc1cccc(Cl)c1)Nc1ncc(CCNc2ncnc3ccsc23)s1 + COC(=O)c1sccc1S(=O)(=O)Nc1ccc(Nc2ccccc2)cc1OC [GSK0660] (first compound 0.004 µM, partner dose 5 µM)",31.8
5,"O=C(Nc1cccc(Cl)c1)Nc1ncc(CCNc2ncnc3ccsc23)s1 + c1cc(-c2cnn3cc(-c4ccc(OCCN5CCCCC5)cc4)cnc23)ccn1 [Dorsomorphin] (first compound 0.004 µM, partner dose 2 µM)",33.6
6,"CC1(C)NC(=O)N(c2ccc([N+](=O)[O-])c(C(F)(F)F)c2)C1=O [nilutamide] + COc1ccc2c(c1)CCC1C2CCC2(C)C(NCCCCCCN3C(=O)C=CC3=O)CCC12 [U73122] (first compound 5 µM, partner dose 2 µM)",87.9
7,"O=C(Nc1cccc(Cl)c1)Nc1ncc(CCNc2ncnc3ccsc23)s1 + Oc1cc(-c2nc(-c3ccccc3)[nH]c2-c2ccncc2)ccc1Cl [L779450] (first compound 0.004 µM, partner dose 1 µM)",39.4
8,"CC1(C)NC(=O)N(c2ccc([N+](=O)[O-])c(C(F)(F)F)c2)C1=O [nilutamide] + Cc1cc([N+](=O)[O-])ccc1NS(=O)(=O)c1cc(Cl)ccc1Cl [FH535] (first compound 5 µM, partner dose 5 µM)",79
9,"O=C(O)c1ccc(-c2c[nH]c3ncc(-c4ccccc4)cc23)cc1C1CCCC1 + CC(C)CCN1c2nc(Nc3cc(F)c(O)c(F)c3)ncc2N(C)C(=O)C1C [BID1870] (first compound 0.8 µM, partner dose 1 µM)",87.2
10,"Cn1cncc1[C@@](N)(c1ccc(Cl)cc1)c1ccc2c(c1)c(-c1cccc(Cl)c1)cc(=O)n2C [tipifarnib] + COc1cc(N2CCC(N3CCN(C)CC3)CC2)ccc1Nc1ncc(Cl)c(Nc2ccccc2S(=O)(=O)C(C)C)n1 [NVP-TAE684] (first compound 0.05 µM, partner dose 0.4 µM)",45.6
11,"O=C(O)c1ccc(-c2c[nH]c3ncc(-c4ccccc4)cc23)cc1C1CCCC1 + COc1ccc2c(c1)CCC1C2CCC2(C)C(NCCCCCCN3C(=O)C=CC3=O)CCC12 [U73122] (first compound 0.8 µM, partner dose 2 µM)",98.5
12,"C[C@@H]1CCN(C(=O)CC#N)C[C@@H]1N(C)c1ncnc2[nH]ccc12 + O=C(O)C(=O)Nc1sc2c(c1C(=O)O)CCNC2 [TCS401] (first compound 5 µM, partner dose 8.33333 µM)",106
13,"C[C@@H]1CCN(C(=O)CC#N)C[C@@H]1N(C)c1ncnc2[nH]ccc12 + CCCCCCCCCCCC1=C(O)C(=O)C=C(O)C1=O [Embelin] (first compound 5 µM, partner dose 6 µM)",100
14,"O=C(Nc1cccc(Cl)c1)Nc1ncc(CCNc2ncnc3ccsc23)s1 + COc1ccc(COc2ccc(Cc3cnc(N)nc3N)cc2OC)cc1 [GW2580] (first compound 0.004 µM, partner dose 5 µM)",41.3
15,"COc1cc(Nc2ncc(F)c(Nc3ccc4c(n3)NC(=O)C(C)(C)O4)n2)cc(OC)c1OC [Tamatinib] + COc1ccc2c(c1)CCC1C2CCC2(C)C(NCCCCCCN3C(=O)C=CC3=O)CCC12 [U73122] (first compound 2 µM, partner dose 2 µM)",75
16,"C[C@@H]1CCN(C(=O)CC#N)C[C@@H]1N(C)c1ncnc2[nH]ccc12 + O=C(Nc1ccccc1)c1cc([N+](=O)[O-])ccc1Cl [GW9662] (first compound 5 µM, partner dose 10 µM)",72.3

row,SMILES,cell count [%]
1,"C[C@@H]1CCN(C(=O)CC#N)C[C@@H]1N(C)c1ncnc2[nH]ccc12 + CC(C)CCN1c2nc(Nc3cc(F)c(O)c(F)c3)ncc2N(C)C(=O)C1C [BID1870] (first compound 5 µM, partner dose 1 µM)",108
2,"O=C(O)c1ccc(-c2c[nH]c3ncc(-c4ccccc4)cc23)cc1C1CCCC1 + Oc1cc(-c2nc(-c3ccccc3)[nH]c2-c2ccncc2)ccc1Cl [L779450] (first compound 0.8 µM, partner dose 1 µM)",43.7
3,"Cn1cncc1[C@@](N)(c1ccc(Cl)cc1)c1ccc2c(c1)c(-c1cccc(Cl)c1)cc(=O)n2C [tipifarnib] + O=S(=O)(c1ccccc1)N(CC(F)(F)F)c1ccc(C(O)(C(F)(F)F)C(F)(F)F)cc1 [T0901317] (first compound 0.05 µM, partner dose 7 µM)",84.5
4,"CC1(C)NC(=O)N(c2ccc([N+](=O)[O-])c(C(F)(F)F)c2)C1=O [nilutamide] + O=S(=O)(c1ccccc1)N(CC(F)(F)F)c1ccc(C(O)(C(F)(F)F)C(F)(F)F)cc1 [T0901317] (first compound 5 µM, partner dose 7 µM)",75.4
5,"O=C(Nc1cccc(Cl)c1)Nc1ncc(CCNc2ncnc3ccsc23)s1 + COc1ccc(-c2ccc3c(N4CCOCC4)nc(N4C[C@@H](C)O[C@@H](C)C4)nc3n2)cc1CO [KU0063794] (first compound 0.004 µM, partner dose 0.1 µM)",45.9
6,"CC1(C)NC(=O)N(c2ccc([N+](=O)[O-])c(C(F)(F)F)c2)C1=O [nilutamide] + CCCCCCCCCCCC1=C(O)C(=O)C=C(O)C1=O [Embelin] (first compound 5 µM, partner dose 6 µM)",108
7,"COc1cc(Nc2ncc(F)c(Nc3ccc4c(n3)NC(=O)C(C)(C)O4)n2)cc(OC)c1OC [Tamatinib] + COc1cc(N2CCC(N3CCN(C)CC3)CC2)ccc1Nc1ncc(Cl)c(Nc2ccccc2S(=O)(=O)C(C)C)n1 [NVP-TAE684] (first compound 2 µM, partner dose 0.4 µM)",59.7
8,"COc1cc(Nc2ncc(F)c(Nc3ccc4c(n3)NC(=O)C(C)(C)O4)n2)cc(OC)c1OC [Tamatinib] + Cc1cc([N+](=O)[O-])ccc1NS(=O)(=O)c1cc(Cl)ccc1Cl [FH535] (first compound 2 µM, partner dose 5 µM)",70.3
9,"CC1(C)NC(=O)N(c2ccc([N+](=O)[O-])c(C(F)(F)F)c2)C1=O [nilutamide] + COc1ccc(-c2ccc3c(N4CCOCC4)nc(N4C[C@@H](C)O[C@@H](C)C4)nc3n2)cc1CO [KU0063794] (first compound 5 µM, partner dose 0.1 µM)",81.7
10,"O=C(O)c1ccc(-c2c[nH]c3ncc(-c4ccccc4)cc23)cc1C1CCCC1 + COc1cc(N2CCC(N3CCN(C)CC3)CC2)ccc1Nc1ncc(Cl)c(Nc2ccccc2S(=O)(=O)C(C)C)n1 [NVP-TAE684] (first compound 0.8 µM, partner dose 0.4 µM)",62.8
11,"Cn1cncc1[C@@](N)(c1ccc(Cl)cc1)c1ccc2c(c1)c(-c1cccc(Cl)c1)cc(=O)n2C [tipifarnib] + CCCCCCCCCCCC1=C(O)C(=O)C=C(O)C1=O [Embelin] (first compound 0.05 µM, partner dose 6 µM)",74.4
12,"CC1(C)NC(=O)N(c2ccc([N+](=O)[O-])c(C(F)(F)F)c2)C1=O [nilutamide] + CCN(CC)CCCCNc1ncc2cc(-c3cc(OC)cc(OC)c3)c(NC(=O)NC(C)(C)C)nc2n1 [PD173074] (first compound 5 µM, partner dose 0.5 µM)",99.1
13,"C[C@@H]1CCN(C(=O)CC#N)C[C@@H]1N(C)c1ncnc2[nH]ccc12 + CCc1ccc(CCOc2ccc(CC3SC(=O)NC3=O)cc2)nc1 [pioglitazone] (first compound 5 µM, partner dose 10 µM)",75.7
14,"Cn1cncc1[C@@](N)(c1ccc(Cl)cc1)c1ccc2c(c1)c(-c1cccc(Cl)c1)cc(=O)n2C [tipifarnib] + Oc1cc(-c2nc(-c3ccccc3)[nH]c2-c2ccncc2)ccc1Cl [L779450] (first compound 0.05 µM, partner dose 1 µM)",48.9
15,"Cn1cncc1[C@@](N)(c1ccc(Cl)cc1)c1ccc2c(c1)c(-c1cccc(Cl)c1)cc(=O)n2C [tipifarnib] + COc1ccc(-c2ccc3c(N4CCOCC4)nc(N4C[C@@H](C)O[C@@H](C)C4)nc3n2)cc1CO [KU0063794] (first compound 0.05 µM, partner dose 0.1 µM)",64.1
16,"Cn1cncc1[C@@](N)(c1ccc(Cl)cc1)c1ccc2c(c1)c(-c1cccc(Cl)c1)cc(=O)n2C [tipifarnib] + CCN(CC)CCCCNc1ncc2cc(-c3cc(OC)cc(OC)c3)c(NC(=O)NC(C)(C)C)nc2n1 [PD173074] (first compound 0.05 µM, partner dose 0.5 µM)",88

# Reference: the supplement of paper PMC4604168 (melanoma cell lines)
